The values below come from patent US20080045697A1 (Genentech, published 2008).

Assay [1] addresses T1, complement C3b (UniProt P01024 23-667; P01024 fragment).
T1 construct: range 1-645;range 729-1641; The residue numbers seem to count on C3 without its signal peptide
Nature of the assay: ELISA: bound factor B detected with polyclonal anti-fB and HRPO secondary antibody. On the procedure: FIG. 13. […] Left panel: A fixed concentration of C3b was mixed with increasing concentrations of factor H in the presence of 4 μM CRIg(wt) or CRIg(C). Co-factor activity was monitored by visualizing the reaction product on a commassie-stained SDS gel to distinguish C3b from iC3b. Right panel: A fixed concentration of C3b and fI was mixed with fH or an increasing concentration of CRIg. […] A fixed concentration of factor B was mixed with increasing concentrations of CRIg. The amount of bound factor B was determined using a polyclonal antibody to fB and a secondary HRPO conjugated ab. […] A C3 convertase was formed on a maxisorp plate by incubating C3b, factor B and factor D. The plate was then incubated with increasing concentration of CRIg or factor H. The remaining factor B bound was detected with an anti factor B antibody and a HRPO-conjugated secondary antibody. The result shown is representative of 3 independent experiments.
For orientation: An ELISA detects its analyte on a solid surface through an enzyme-linked reagent.

The target of assay [2] is T1, complement C3b. Briefly: Fig. S13A-C and results not shown.
T1 sequence (P01024 23-667 limits assumed, chain 1 of 2): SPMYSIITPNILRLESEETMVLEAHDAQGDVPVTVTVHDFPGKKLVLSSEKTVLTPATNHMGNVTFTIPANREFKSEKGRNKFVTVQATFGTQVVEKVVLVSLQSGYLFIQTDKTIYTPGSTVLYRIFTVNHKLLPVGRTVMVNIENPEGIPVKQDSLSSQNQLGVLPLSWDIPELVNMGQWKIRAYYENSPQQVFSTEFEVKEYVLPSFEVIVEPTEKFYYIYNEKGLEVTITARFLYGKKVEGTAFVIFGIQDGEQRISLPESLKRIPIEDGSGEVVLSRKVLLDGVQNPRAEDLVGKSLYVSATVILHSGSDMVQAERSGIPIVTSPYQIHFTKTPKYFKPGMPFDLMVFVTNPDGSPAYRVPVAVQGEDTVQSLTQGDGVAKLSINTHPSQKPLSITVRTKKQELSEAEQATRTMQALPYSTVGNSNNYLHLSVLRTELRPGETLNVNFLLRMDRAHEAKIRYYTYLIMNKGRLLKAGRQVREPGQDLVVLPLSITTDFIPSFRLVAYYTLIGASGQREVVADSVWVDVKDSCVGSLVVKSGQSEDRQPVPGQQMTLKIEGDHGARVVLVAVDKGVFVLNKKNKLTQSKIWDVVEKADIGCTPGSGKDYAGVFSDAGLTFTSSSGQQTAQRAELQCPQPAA
T1 sequence (P01024 751-1663 limits assumed, chain 2 of 2): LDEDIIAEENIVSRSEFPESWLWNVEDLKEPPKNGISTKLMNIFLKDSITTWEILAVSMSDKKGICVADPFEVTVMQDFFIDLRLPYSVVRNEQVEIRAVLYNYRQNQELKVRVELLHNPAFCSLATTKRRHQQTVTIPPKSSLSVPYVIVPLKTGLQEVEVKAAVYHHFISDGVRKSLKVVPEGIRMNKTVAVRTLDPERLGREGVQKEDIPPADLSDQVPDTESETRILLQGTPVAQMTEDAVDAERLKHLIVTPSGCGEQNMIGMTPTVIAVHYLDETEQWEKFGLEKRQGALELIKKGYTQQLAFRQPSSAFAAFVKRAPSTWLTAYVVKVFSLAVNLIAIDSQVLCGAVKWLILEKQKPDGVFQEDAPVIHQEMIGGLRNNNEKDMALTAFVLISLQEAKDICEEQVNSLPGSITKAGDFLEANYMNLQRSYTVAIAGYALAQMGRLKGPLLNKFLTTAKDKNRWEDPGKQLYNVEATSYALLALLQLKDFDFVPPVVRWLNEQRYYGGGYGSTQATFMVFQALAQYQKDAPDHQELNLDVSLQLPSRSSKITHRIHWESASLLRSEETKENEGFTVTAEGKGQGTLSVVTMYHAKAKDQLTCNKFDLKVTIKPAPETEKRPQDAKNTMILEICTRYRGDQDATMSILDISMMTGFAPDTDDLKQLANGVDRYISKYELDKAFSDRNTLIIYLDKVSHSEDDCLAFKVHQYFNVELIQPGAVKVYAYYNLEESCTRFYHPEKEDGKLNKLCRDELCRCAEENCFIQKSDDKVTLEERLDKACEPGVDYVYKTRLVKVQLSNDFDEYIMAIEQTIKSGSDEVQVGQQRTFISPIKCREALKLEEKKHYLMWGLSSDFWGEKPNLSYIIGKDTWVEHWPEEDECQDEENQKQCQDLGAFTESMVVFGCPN

B1: complement factor B (enzyme, UniProt P00751 26-764, looked up)
chain: TPWSLARPQGSCSLEGVEIKGGSFRLLQEGQALEYVCPSGFYPYPVQTRTCRSTGSWSTLKTQDQKTVRKAECRAIHCPRPHDFENGEYWPRSPYYNVSDEISFHCYDGYTLRGSANRTCQVNGRWSGQTAICDNGAGYCSNPGIPIGTRKVGSQYRLEDSVTYHCSRGLTLRGSQRRTCQEGGSWSGTEPSCQDSFMYDTPQEVAEAFLSSLTETIEGVDAEDGHGPGEQQKRKIVLDPSGSMNIYLVLDGSDSIGASNFTGAKKCLVNLIEKVASYGVKPRYGLVTYATYPKIWVKVSEADSSNADWVTKQLNEINYEDHKLKSGTNTKKALQAVYSMMSWPDDVPPEGWNRTRHVIILMTDGLHNMGGDPITVIDEIRDLLYIGKDRKNPREDYLDVYVFGVGPLVNQVNINALASKKDNEQHVFKVKDMENLEDVFYQMIDESQSLSLCGMVWEHRKGTDYHKQPWQAKISVIRPSKGHESCMGAVVSEYFVLTAAHCFTVDDKEHSIKVSVGGEKRDLEIEVVLFHPNYNINGKKEAGIPEFYDYDVALIKLKNKLKYGQTIRPICLPCTEGTTRALRLPPTTTCQQQKEELLPAQDIKALFVSEEEKKLTRKEVYIKNGDKKGSCERDAQYAPGYDKVKDISEVVTPRFLCTGGVSPYADPNTCRGDSGGPLIVHKRSRFIQVGVISWGVVDVCKNQKRQKQVPAHARDFHINLFQVLPWLKEKLQDEDLGFL
notes: also called fB
Turning to B1, in the assay with complement C3b [1], the binding result is “binds”.

B2: properdin (other, UniProt P27918 28-469, looked up)
chain: DPVLCFTQYEESSGKCKGLLGGGVSVEDCCLNTAFAYQKRSGGLCQPCRSPRWSLWSTWAPCSVTCSEGSQLRYRRCVGWNGQCSGKVAPGTLEWQLQACEDQQCCPEMGGWSGWGPWEPCSVTCSKGTRTRRRACNHPAPKCGGHCPGQAQESEACDTQQVCPTHGAWATWGPWTPCSASCHGGPHEPKETRSRKCSAPEPSQKPPGKPCPGLAYEQRRCTGLPPCPVAGGWGPWGPVSPCPVTCGLGQTMEQRTCNHPVPQHGGPFCAGDATRTHICNTAVPCPVDGEWDSWGEWSPCIRRNMKSISCQEIPGQQSRGRTCRGRKFDGHRCAGQQQDIRHCYSIQHCPLKGSWSEWSTWGLCMPPCGPNPTRARQRLCTPLLPKYPPTVSMVEGQGEKNVTFWGRPLPRCEELQGQKLVVEEKRPCLHVPACKDPEEEEL
On to B2, for which, in the assay with complement C3b [2], the binding result is reported as “binds”.
